Experimental data published in PubChem BioAssay AID202 (DTP/NCI, 2004).
Not every entry of the source has a single result; some have several. This is not the full list of results. An entry can have further records. The values listed for one entry are repeated measurements in other runs, samples, wells, individuals or studies.

Tested on: HT29 xenograft, nude mice, s.c., tumor weight T/C%
Assay: NCI In Vivo Anticancer Drug Screen. Data for tumor model HT29;CX-1 Human Adenocarcinoma (MER+) (subcutaneous) in NU/NU Swiss (nude) mice
Details: endpoint: optimum tumor weight change, schedule: Q04DX005 (ip), vehicle: Klucel (hydroxypropylcellulose) (HPC), higher = larger tumour
Procedure: The antitumor activity of compounds was measured in mice bearing transplantable tumors. Survival or tumor size were measured and the results are expressed as the measurement made in the treated group (T) divided by the measurement made in the vehicle treated control group (C). The tumor model used in this assay is HT29;CX-1 Human Adenocarcinoma (MER+) (subcutaneous) in NU/NU Swiss (nude) mice

CN(C)c1nc(N(C)C)nc(N(C)C)n1 was tested, and the T/C (dose: 60.0 mg/kg/injection) was 53 % of control and 114 % of control and the T/C (dose: 120.0 mg/kg/injection) was 51 % of control and 102 % of control.
